# In the supplement of paper PMC8728848:
# Some of the results follow.
# How the values were obtained:
# Test in all cases: glycan array binding signal (z-score within array); higher = stronger binding
# Conditions in all cases: glycan notation: IUPAC condensed, linker removed
# Fuc(a1-2)Gal = target: Fuc(a1-2)Gal
# Method in brief: (§1)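 Glycan array data were curated from 3228 arrays in the Consortium for Functional Glycomics database and kept only where the protein sequence was available. Glycan names were converted to IUPAC-condensed notation, and columns mapping to the same glycan were averaged. The binding signal is a within-array Z-score, averaged across arrays of the same protein sequence at different concentrations or buffers and across linkers. Negative Z-scores can be read as non-binding.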
# Fuc(a1-2)Gal(b1-3)GalNAc = target: Fuc(a1-2)Gal(b1-3)GalNAc
# Method in brief: as §1
# [1] = target: Fuc(a1-2)Gal(b1-3)GalNAc(a1-3)[Fuc(a1-2)]Gal(b1-4)Glc
# Method in brief: as §1
# [2] = target: Fuc(a1-2)Gal(b1-3)GalNAc(a1-3)[Fuc(a1-2)]Gal(b1-4)GlcNAc
# Method in brief: as §1
# [3] = target: Fuc(a1-2)Gal(b1-3)GalNAc(b1-3)Gal
# Method in brief: as §1
# [4] = target: Fuc(a1-2)Gal(b1-3)GalNAc(b1-3)Gal(a1-4)Gal(b1-4)Glc
# Method in brief: as §1
# [5] = target: Fuc(a1-2)Gal(b1-3)GalNAc(b1-4)[Neu5Ac(a2-3)]Gal(b1-4)Glc
# Method in brief: as §1
# Fuc(a1-2)Gal(b1-3)GlcNAc = target: Fuc(a1-2)Gal(b1-3)GlcNAc
# Method in brief: as §1
# [6] = target: Fuc(a1-2)Gal(b1-3)GlcNAc(b1-2)Man(a1-3)[Fuc(a1-2)Gal(b1-3)GlcNAc(b1-2)Man(a1-6)]Man(b1-4)GlcNAc(b1-4)GlcNAc
# Method in brief: as §1
# [7] = target: Fuc(a1-2)Gal(b1-3)GlcNAc(b1-2)Man(a1-3)[Fuc(a1-2)Gal(b1-3)GlcNAc(b1-2)Man(a1-6)]Man(b1-4)GlcNAc(b1-4)[Fuc(a1-6)]GlcNAc
# Method in brief: as §1
# [8] = target: Fuc(a1-2)Gal(b1-3)GlcNAc(b1-3)Gal(b1-4)Glc
# Method in brief: as §1
# [9] = target: Fuc(a1-2)Gal(b1-3)GlcNAc(b1-3)GalNAc
# Method in brief: as §1
# [10] = target: Fuc(a1-2)Gal(b1-3)GlcNAc(b1-3)[Fuc(a1-2)Gal(b1-3)GlcNAc(b1-6)]GalNAc
# Method in brief: as §1
# [11] = target: Fuc(a1-2)Gal(b1-3)GlcNAc(b1-3)[Gal(b1-4)GlcNAc(b1-6)]Gal(b1-4)Glc
# Method in brief: as §1
# [12] = target: Fuc(a1-2)Gal(b1-3)GlcNAc(b1-3)[Neu5Ac(a2-6)Gal(b1-4)GlcNAc(b1-6)]Gal(b1-4)Glc
# Method in brief: as §1
# [13] = target: Fuc(a1-2)Gal(b1-3)GlcNAc6S
# Method in brief: as §1
# [14] = target: Fuc(a1-2)Gal(b1-3)[Fuc(a1-4)]GlcNAc
# Method in brief: as §1
# [15] = target: Fuc(a1-2)Gal(b1-3)[Fuc(a1-4)]GlcNAc(b1-2)Man(a1-3)[Fuc(a1-2)Gal(b1-3)[Fuc(a1-4)]GlcNAc(b1-2)Man(a1-3)]Man(b1-4)GlcNAc(b1-4)GlcNAc
# Method in brief: as §1
# [16] = target: Fuc(a1-2)Gal(b1-3)[Fuc(a1-4)]GlcNAc(b1-2)Man(a1-3)[Fuc(a1-2)Gal(b1-3)[Fuc(a1-4)]GlcNAc(b1-2)Man(a1-6)]Man(b1-4)GlcNAc(b1-4)[Fuc(a1-6)]GlcNAc(b1-4)[Fuc(a1-6)]GlcNAc
# Method in brief: as §1
# [17] = target: Fuc(a1-2)Gal(b1-3)[Fuc(a1-4)]GlcNAc(b1-3)[Fuc(a1-3)[Gal(b1-4)]GlcNAc(b1-6)]Gal(b1-4)Glc
# Method in brief: as §1
# [18] = target: Fuc(a1-2)Gal(b1-3)[Fuc(a1-4)]GlcNAc(b1-3)[Gal(b1-4)GlcNAc(b1-6)]Gal(b1-4)Glc
# Method in brief: as §1
# [19] = target: Fuc(a1-2)Gal(b1-4)Fuc(a1-3)]GlcNAc(b1-2)Man(a1-3)[Fuc(a1-2)Gal(b1-4)[Fuc(a1-3)]GlcNAc(b1-2)Man(a1-6)]Man(b1-4)GlcNAc(b1-4)GlcNAc
# Method in brief: as §1
# Fuc(a1-2)Gal(b1-4)Glc = target: Fuc(a1-2)Gal(b1-4)Glc
# Method in brief: as §1
# Fuc(a1-2)Gal(b1-4)Glc6S = target: Fuc(a1-2)Gal(b1-4)Glc6S
# Method in brief: as §1
# Fuc(a1-2)Gal(b1-4)GlcNAc = target: Fuc(a1-2)Gal(b1-4)GlcNAc
# Method in brief: as §1
# [20] = target: Fuc(a1-2)Gal(b1-4)GlcNAc(b1-2)Man
# Method in brief: as §1
# [21] = target: Fuc(a1-2)Gal(b1-4)GlcNAc(b1-2)Man(a1-3)[Fuc(a1-2)Gal(b1-4)GlcNAc(b1-2)Man(a1-6)]Man(b1-4)GlcNAc(b1-4)GlcNAc
# Method in brief: as §1
# [22] = target: Fuc(a1-2)Gal(b1-4)GlcNAc(b1-2)Man(a1-3)[Fuc(a1-2)Gal(b1-4)GlcNAc(b1-2)Man(a1-6)]Man(b1-4)GlcNAc(b1-4)[Fuc(a1-6)]GlcNAc
# Method in brief: as §1
# [23] = target: Fuc(a1-2)Gal(b1-4)GlcNAc(b1-2)[Fuc(a1-2)Gal(b1-4)GlcNAc(b1-4)]Man(a1-3)[Fuc(a1-2)Gal(b1-4)GlcNAc(b1-2)Man(a1-6)]Man(b1-4)GlcNAc(b1-4)GlcNAc
# Method in brief: as §1
# [24] = target: Fuc(a1-2)Gal(b1-4)GlcNAc(b1-3)Gal(b1-4)GlcNAc
# Method in brief: as §1
# [25] = target: Fuc(a1-2)Gal(b1-4)GlcNAc(b1-3)Gal(b1-4)GlcNAc(b1-2)Man(a1-3)[Fuc(a1-2)Gal(b1-4)GlcNAc(b1-3)Gal(b1-4)GlcNAc(b1-2)Man(a1-6)]Man(b1-4)GlcNAc(b1-4)GlcNAc
# Method in brief: as §1
# [26] = target: Fuc(a1-2)Gal(b1-4)GlcNAc(b1-3)Gal(b1-4)GlcNAc(b1-3)Gal(b1-4)GlcNAc
# Method in brief: as §1
# [27] = target: Fuc(a1-2)Gal(b1-4)GlcNAc(b1-3)GalNAc
# Method in brief: as §1
# [28] = target: Fuc(a1-2)Gal(b1-4)GlcNAc(b1-3)[Fuc(a1-2)Gal(b1-4)GlcNAc(b1-6)]GalNAc
# Method in brief: as §1
# [29] = target: Fuc(a1-2)Gal(b1-4)GlcNAc(b1-3)[Fuc(a1-3)[Gal(b1-4)]GlcNAc(b1-6)]Gal(b1-4)Glc
# Method in brief: as §1
# [30] = target: Fuc(a1-2)Gal(b1-4)GlcNAc(b1-6)GalNAc
# Method in brief: as §1
# [31] = target: Fuc(a1-2)Gal(b1-4)GlcNAc6S
# Method in brief: as §1
# [32] = target: Fuc(a1-2)Gal(b1-4)[Fuc(a1-3)]GlcNAc
# Method in brief: as §1
# [33] = target: Fuc(a1-2)Gal(b1-4)[Fuc(a1-3)]GlcNAc(b1-2)Man(a1-3)[Fuc(a1-2)Gal(b1-4)[Fuc(a1-3)]GlcNAc(b1-2)Man(a1-6)]Man(b1-4)GlcNAc(b1-4)[Fuc(a1-6)]GlcNAc
# Method in brief: as §1
# [34] = target: Fuc(a1-2)Gal(b1-4)[Fuc(a1-3)]GlcNAc(b1-2)[Fuc(a1-2)Gal(b1-4)[Fuc(a1-3)]GlcNAc(b1-4)]Man(a1-3)[Fuc(a1-2)Gal(b1-4)[Fuc(a1-3)]GlcNAc(b1-2)Man(a1-6)]Man(b1-4)GlcNAc(b1-4)GlcNAc
# Method in brief: as §1
# [35] = target: Fuc(a1-2)Gal(b1-4)[Fuc(a1-3)]GlcNAc(b1-3)Gal(b1-4)[Fuc(a1-3)]GlcNAc
# Method in brief: as §1
# [36] = target: Fuc(a1-2)Gal(b1-4)[Fuc(a1-3)]GlcNAc(b1-3)Gal(b1-4)[Fuc(a1-3)]GlcNAc(b1-3)Gal(b1-4)[Fuc(a1-3)]GlcNAc
# Method in brief: as §1
# [37] = target: Fuc(a1-2)Gal(b1-4)[Fuc(a1-3)]GlcNAc(b1-3)GalNAc
# Method in brief: as §1
# [38] = target: Fuc(a1-2)Gal(b1-4)[Fuc(a1-3)]GlcNAc(b1-3)[Neu5Ac(a2-6)Gal(b1-4)GlcNAc(b1-6)]Gal(b1-4)Glc
# Method in brief: as §1
# [39] = target: Fuc(a1-2)Gal3S(b1-4)GlcNAc
# Method in brief: as §1
binder,measurement,setting,value
Banana lectin (Musa acuminata) (protein) MNGAIKVGAWGGNGGSAFDMGPAYRIISVKIFSGDVVDGVDVTFTYYGKTETRHYGGSGGTPHEIVLQEGEYLVGMAGEVANYHGAVVLGKLGFSTNKKAYGPFGNTGGTPFSLPIAAGKISGFFGRGGKFLDAIGVYLEPLEHHHHHH,glycan array binding signal (z-score),Fuc(a1-2)Gal,-0.209
same,glycan array binding signal (z-score),Fuc(a1-2)Gal(b1-3)GalNAc,-0.203
same,glycan array binding signal (z-score),[1],-0.212
same,glycan array binding signal (z-score),[2],-0.221
same,glycan array binding signal (z-score),[3],-0.202
same,glycan array binding signal (z-score),[4],-0.23
same,glycan array binding signal (z-score),[5],-0.133
same,glycan array binding signal (z-score),Fuc(a1-2)Gal(b1-3)GlcNAc,-0.209
same,glycan array binding signal (z-score),[6],0.268
same,glycan array binding signal (z-score),[7],0.041
same,glycan array binding signal (z-score),[8],-0.179
same,glycan array binding signal (z-score),[9],-0.216
same,glycan array binding signal (z-score),[10],-0.239
same,glycan array binding signal (z-score),[11],-0.206
same,glycan array binding signal (z-score),[12],-0.218
same,glycan array binding signal (z-score),[13],-0.221
same,glycan array binding signal (z-score),[14],-0.19
same,glycan array binding signal (z-score),[15],-0.174
same,glycan array binding signal (z-score),[16],0.022
same,glycan array binding signal (z-score),[17],-0.217
same,glycan array binding signal (z-score),[18],-0.232
same,glycan array binding signal (z-score),[19],-0.096
same,glycan array binding signal (z-score),Fuc(a1-2)Gal(b1-4)Glc,-0.217
same,glycan array binding signal (z-score),Fuc(a1-2)Gal(b1-4)Glc6S,-0.209
same,glycan array binding signal (z-score),Fuc(a1-2)Gal(b1-4)GlcNAc,-0.207
same,glycan array binding signal (z-score),[20],-0.222
same,glycan array binding signal (z-score),[21],0.303
same,glycan array binding signal (z-score),[22],0.084
same,glycan array binding signal (z-score),[23],0.042
same,glycan array binding signal (z-score),[24],-0.21
same,glycan array binding signal (z-score),[25],-0.109
same,glycan array binding signal (z-score),[26],-0.196
same,glycan array binding signal (z-score),[27],-0.303
same,glycan array binding signal (z-score),[28],-0.219
same,glycan array binding signal (z-score),[29],-0.2
same,glycan array binding signal (z-score),[30],-0.21
same,glycan array binding signal (z-score),[31],-0.212
same,glycan array binding signal (z-score),[32],-0.205
same,glycan array binding signal (z-score),[33],-0.19
same,glycan array binding signal (z-score),[34],-0.177
same,glycan array binding signal (z-score),[35],-0.19
same,glycan array binding signal (z-score),[36],-0.178
same,glycan array binding signal (z-score),[37],-0.192
same,glycan array binding signal (z-score),[38],-0.206
same,glycan array binding signal (z-score),[39],-0.164
